About 18,000 (5.8%) of roughly 310,000 compounds were called active. The inconclusive results got no clear call from the source; some entries with a clear call stand among them for comparison. Calls follow the shape of the dose curve; as a rule, active = well fitted inhibition curve with a large enough effect; inconclusive = small, poorly fitted or top-dose-only effect, or another doubt; inactive = no such curve, though single readings can be large or run the other way. Potencies of inconclusive entries are left out as doubtful fits.
assay: Primary qHTS for delayed death inhibitors of the malarial parasite plastid, 48 hour incubation; details: P. falciparum luciferase growth in erythrocytes; series mostly up to 28.7 µM
Method in brief: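 Growth was read as firefly luciferase luminescence after a 48 h, 37 C, 5% CO2 exposure of compounds to reporter-bearing P. falciparum cultures (0.1% parasitemia, 2% hematocrit final) in Albumax-supplemented RPMI 1640.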
Potency is read from the fitted curve at half-maximal effect; tags tell the direction and shape of the fitted curve.

| SMILES | Potency |
| --- | --- |
| O=C(COc1coc(CN2CCN(c3ccccc3)CC2)cc1=O)Nc1ccc(F)cc1 | inconclusive [inhibitor, partial curve, poor fit] |
| CC(C)C(c1nnnn1Cc1ccccc1)N1CCc2ccccc2C1 (stereo not drawn) | inconclusive [inhibitor, single point] |
| CS(=O)(=O)c1ccccc1-c1nnc(NC(=O)CCS(=O)(=O)c2ccc(Cl)cc2)o1 | inconclusive [inhibitor, single point] |
| CS(=O)(=O)c1ccc(NC(=O)c2ccccc2-n2cnnn2)cc1 | inconclusive [inhibitor, partial curve, poor fit] |
| O=C(Nc1ccccc1N1CCOCC1)c1cnccn1 | inconclusive [inhibitor, partial curve] |
| CC1CCCC(C)N1C(=O)COC(=O)c1cccc(S(=O)(=O)N(C)c2ccccc2)c1 (stereo not drawn) | inconclusive [inhibitor, partial curve, poor fit] |
| CN(C(=O)C1CCCN(S(=O)(=O)c2cccc([N+](=O)[O-])c2)C1)C1CCS(=O)(=O)C1 (stereo not drawn) | inconclusive [inhibitor, single point] |
| CCOc1ccc(NC(=S)N2CCc3cc(OC)c(OC)cc3C2COc2ccc3c(C)cc(=O)oc3c2)cc1 (stereo not drawn) | inconclusive [inhibitor, partial curve, poor fit] |
| Nc1cc(C(=O)N2CCN(c3ccc([N+](=O)[O-])cc3)CC2)ccc1N1CC2CC(C1)c1cccc(=O)n1C2 (stereo not drawn) | inconclusive [inhibitor, single point] |
| COCCNC(=O)c1c(N)n(CCCn2ccnc2)c2nc3ccccc3nc12 | active: 7.38 µM |
| O=C(Nc1cccc(F)c1)Nc1ccnn1C1CCN(C(=O)c2cscn2)CC1 | inactive |
| CC(=O)c1cc(-c2ccc(F)cc2)n(CCC(=O)Nc2cc(C)[nH]n2)c1C | inactive |
| Cc1cc(C)c2sc(N(CCN(C)C)C(=O)c3ccc4ccccc4c3)nc2c1 | inactive |
| Oc1cc2ccccc2nc1-c1ccccc1Cl | active: 7.38 µM |
| CN(C)c1ccc(C(CNC(=O)c2ccc(F)cc2)c2c[nH]c3ccccc23)cc1 (stereo not drawn) | inconclusive [inhibitor, single point] |
| COc1ccc(CN(C)C2c3ccccc3-c3ccccc32)cc1 | inconclusive [inhibitor, single point] |
| CC(=O)Nc1nc(-c2ccccc2)c(-c2ccccc2)o1 | inactive |
| O=C(CSc1cccc[n+]1[O-])c1ccccc1Br | inactive |
| C[N+](C)(CC#Cc1ccccc1)CC(=O)c1ccccc1 | inconclusive [inhibitor, single point] |
| O=C1CC(/C=C/c2ccccn2)=Nc2ccccc2N1 | inconclusive [inhibitor, single point] |
| Cc1ccc(-c2cc(C(F)(F)F)n3nc(C(=O)NCCCn4ccnc4)cc3n2)cc1C | inconclusive [inhibitor, single point] |
| Oc1ccccc1N1CCN(c2ncnc3scc(-c4ccccc4)c23)CC1 | active: 5.86 µM |
| COc1ccc(N(C(=O)c2snc(C(N)=O)c2N)C(C(=O)NC2CCCCC2)c2ccc(F)cc2)c(OC)c1 (stereo not drawn) | inconclusive [inhibitor, partial curve] |

| SMILES | Potency |
| --- | --- |
| O=C(NCc1ccco1)C1CCN(S(=O)(=O)c2cccc([N+](=O)[O-])c2)CC1 | active: 9.28 µM |
| CC(C)CN(Cc1c(O)ccc2c3c(c(=O)oc12)CCC3)CC(C)C | inconclusive [inhibitor, full curve, poor fit] |
| Cc1ccc(C(=O)Nc2nc3ccc(S(C)(=O)=O)cc3s2)s1 | inactive |
| Cc1ccccc1NC(=O)c1cccc(N2C(=O)C3CCCCC3C2=O)c1 (stereo not drawn) | inconclusive [inhibitor, partial curve, poor fit] |
| COc1cccc(N(C(=O)c2ccn[nH]2)C2(C(=O)Nc3c(C)cccc3C)CCCCC2)c1 | active: 9.28 µM |
| CCC(C)NC(=O)c1csc2c1CCCCC2 (stereo not drawn) | inactive |
| O=C(NC1CCN(Cc2ccccc2)CC1)c1ccccc1OCc1ccccc1Cl | inconclusive [inhibitor, partial curve] |
| C/C(=N/NC(N)=S)c1ccc(Br)s1 | active: 14.7 µM |
| CC1=C(C(=O)OCc2ccccc2)C(c2ccc([N+](=O)[O-])cc2)NC(=O)N1CCCCCC(=O)O (stereo not drawn) | inconclusive [inhibitor, partial curve, poor fit] |
| COc1cc(C)c(S(=O)(=O)NCCCn2ccnc2)cc1C | inconclusive [inhibitor, full curve, poor fit] |
| O=C(NC1CCCCC1)NC1CC2CCC(C1)N2Cc1nnnn1Cc1ccc2c(c1)OCO2 (stereo not drawn) | inconclusive [inhibitor, partial curve, poor fit] |
| Cc1ccc2nc(Cl)c(C3CC(c4cccs4)=NN3S(C)(=O)=O)cc2c1 (stereo not drawn) | inconclusive [inhibitor, partial curve] |
| Cc1cccc(NC(=O)C2CCN(S(=O)(=O)c3ccc4c(c3)C(C)(C)C(=O)N4C)CC2)c1C | inconclusive [inhibitor, single point] |
| COc1ccc(NC(=O)COC(=O)CCc2ccccc2)c(OC)c1 | inconclusive [inhibitor, partial curve, poor fit] |
| c1ccc(Cn2ncc3c(NCc4ccco4)ncnc32)cc1 | inconclusive [inhibitor, single point] |
| Cc1ccc(Cl)cc1NC(=O)COC(=O)CC(C)(C)C | inconclusive [inhibitor, single point] |
| CCN(CC(=O)Nc1c(F)cccc1F)C(=O)c1cc(S(=O)(=O)N(CC)CC)ccc1N1CCCCC1 | inconclusive [inhibitor, partial curve, poor fit] |
| CC(C)(C)C(=O)Nc1sc2c(c1C#N)CCN(Cc1ccccc1)C2 | inactive |
| Oc1ccc(Nc2nc(N3CCCC3)c3ccccc3n2)cc1 | active: 0.465 µM |
| Cc1cc(C(=O)COC(=O)c2ccc(O)cc2)c(C)n1CCc1ccc(F)cc1 | inconclusive [inhibitor, single point] |
| COc1ccc(C(=O)N/N=C/c2ccc3cccc(O)c3n2)cc1 | inconclusive [inhibitor, partial curve, poor fit] |
| CSC1=N/C(=C\c2ccc(Cl)cc2)C(=O)N1N(C)C | inactive |
| CCOc1cc(N2CCOCC2)c(OCC)cc1NC(=O)c1nn(CC)c(=O)c2ccccc12 | active: 10.4 µM |

| SMILES | Potency |
| --- | --- |
| CN1CCC(=O)N([C@H](CN=[N+]=[N-])c2ccccc2)CC1 | inactive |
| CC(C)(C)OC(=O)N1CCC(CC2CC(c3ccncc3)=NO2)(C(=O)O)CC1 (stereo not drawn) | inconclusive [inhibitor, single point] |
| CC1=CC(C)C(/C=N/N=C(N)N)C(C)C1 (stereo not drawn) | active: 11.7 µM |
| O=C(Nc1ccc(F)cc1F)c1ccc2nc(N3CCOCC3)sc2c1 | inactive |
| Cc1c(NC(=S)SCc2ccccc2)c(=O)n(-c2ccccc2)n1C | inactive |
| O=C(NCCCN1CCCC1=O)Nc1ccc(Br)cc1Cl | inactive |
| Cc1c(C(c2ccc(N(C)C)cc2)c2c(C)n(C)n(-c3ccccc3)c2=O)c(=O)n(-c2ccccc2)n1C | inconclusive [inhibitor, single point] |
| CC1(c2ccccc2)CC(C)(C)N2C(=O)Cc3cccc1c32 (stereo not drawn) | active: 14.7 µM |
| COc1ccc(N2CCN(C(=O)c3ccc(CS(=O)(=O)c4ccc(Br)cc4)o3)CC2)cc1 | inconclusive [inhibitor, partial curve, poor fit] |
| CCCn1c(N2CCN(CC(=O)Nc3ccc4c(c3)OCCO4)CC2)nc2ccccc21 | inconclusive [inhibitor, single point] |
| CC(CN1CCOCC1)OC(=O)C1COc2ccccc2O1 (stereo not drawn) | inactive |
| Cc1ccc(N(CN2C(=O)C3C4CCC(C4)C3C2=O)C(=O)c2ccco2)cc1 (stereo not drawn) | inconclusive [inhibitor, single point] |
| COc1cccc(NC(=O)CN(C)C(=O)c2cc(-c3ccccc3)nc3ccccc23)c1 | inconclusive [inhibitor, partial curve] |
| Cc1ccc(OCCn2cc(/C=C(\C#N)C(=O)NCC3CCCO3)c3ccccc32)cc1 (stereo not drawn) | active: 10.4 µM |
| N#C/C(=C\c1cc([N+](=O)[O-])c(N2CCCCC2)cc1N1CCCCC1)c1nn(-c2ccccc2)c(N)c1C#N | inconclusive [inhibitor, full curve, poor fit] |
| CCN(Cc1nc2ccccc2c(=O)[nH]1)C(=O)C1CC(=O)N(c2cccc3ccccc23)C1 (stereo not drawn) | active: 10.4 µM |
| CNC(=O)/C(C#N)=C/c1ccc(-c2ccc(OC)cc2[N+](=O)[O-])o1 | inconclusive [inhibitor, single point] |
| CCCCn1c(NCc2ccccc2O)nc2ccccc21 | inconclusive [inhibitor, full curve] |
| C=CCn1c(SCC(=O)c2c(N)n(CCC)c(=O)n(C)c2=O)nnc1-c1ccncc1 | inactive |
| CCC(=O)N1CCc2cc(Br)cc(S(=O)(=O)N(C)c3ccc(OC)cc3OC)c21 | inconclusive [inhibitor, single point] |
| CNC(=O)c1nnsc1S(=O)c1ccc(Cl)cc1 (stereo not drawn) | active: 14.7 µM |
| O=C(N/N=C/c1cccnc1)c1ccccc1NS(=O)(=O)c1cccs1 | inactive |

— PubChem BioAssay AID504832 (National Center for Advancing Translational Sciences (NCATS), 2011)
